± gives the standard deviation of the averaged measurements. The full ranking holds about 33,000 sequences; the median of “E-score (dimensionless, -0.5 to 0.5)” is about -0.046, and the highest 2% start at about 0.36. The list shows a part of the results.

The subject of this test is T1, SpTbr T-box DNA-binding domain (GST fusion).
T1 sequence: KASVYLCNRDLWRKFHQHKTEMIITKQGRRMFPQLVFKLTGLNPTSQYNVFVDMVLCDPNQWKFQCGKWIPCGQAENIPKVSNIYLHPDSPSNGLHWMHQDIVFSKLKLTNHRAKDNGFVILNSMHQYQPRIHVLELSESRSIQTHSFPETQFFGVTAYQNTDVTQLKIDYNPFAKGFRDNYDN
Description: PBM E-score of 8-mer (E-score (dimensionless, -0.5 to 0.5)); Tbr is Tbrain of the sea star Patiria miniata (Pm) or the sea urchin Strongylocentrotus purpuratus (Sp); higher = stronger binding preference; most listed sequences are background and not binding sites. As to conditions: the construct has about 5 more residues each side. In outline:
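Using the Universal PBM Analysis Suite, every ungapped 8-mer received an enrichment E-score averaged over duplicate arrays. Probe intensities came from double-stranded Universal Agilent oligonucleotide arrays incubated with 200 nM GST-fused Tbr T-box DNA-binding domain in PBS (pH 7.5). That protein was expressed in BL21 E. coli at 20 °C and purified by glutathione affinity chromatography.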
For the sequence ACCGAGAG, the “PBM E-score of 8-mer” value is -0.15 ± 0.039.
For AACGGACC the value was -0.115 ± 0.018.
For CCGAAGAG the value was -0.0935 ± 0.045; for GGGCGTGA, 0.44 ± 0.015; for GCCGCTTA, -0.0183 ± 0.017.
For TATACAAA the value was -0.164 ± 0.032; for GTCGACAA, 0.275 ± 0.0098.
Take CCAATGAG: the “PBM E-score of 8-mer” value was -0.24 ± 0.018.
For AGCTGTCG, the “PBM E-score of 8-mer” value came out at 0.263 ± 0.013.
ACAAGTTC: the “PBM E-score of 8-mer” value worked out at 0.0763 ± 0.052.
Then AATTACGC, with -0.0182 ± 0.0037.
Then CTGACGGC, with 0.0221 ± 0.079.
For ATCACAGA the value was 0.102 ± 0.074; for AGGCAAAA, -0.067 ± 0.046.
AGCCAGAT: the “PBM E-score of 8-mer” value is -0.172 ± 0.03.
Then GGAACTAA, with -0.00749 ± 0.0016; and CGATAGTA, with -0.122 ± 0.091.
On to CTGTTTGC, for which the “PBM E-score of 8-mer” value amounted to 0.114 ± 0.1.
Then CTACATGA, with -0.0618 ± 0.042.
Then CGATTGAA, with 0.107 ± 0.0081; and AGGCCACG, with -0.275 ± 0.066.
As to TAGCGCGA, the “PBM E-score of 8-mer” value came out at 0.3785 ± 0.0014.
Regarding AGAAGGAA, the “PBM E-score of 8-mer” value is -0.175 ± 0.0074.
For ACGTGTTA the value was 0.431 ± 0.015.
For AGCGTTAA, the “PBM E-score of 8-mer” value worked out at 0.36 ± 0.025.
In the case of AGATAGCA, the “PBM E-score of 8-mer” value was found to be 0.0811 ± 0.0055.
Turning to CTAGGCGA, the “PBM E-score of 8-mer” value was -0.00077 ± 0.096.
Then GACTTTAC, with -0.0798 ± 0.014.
For ATTGTTCA, the “PBM E-score of 8-mer” value was -0.0397 ± 0.014.
On to ACGGGAAC, for which the “PBM E-score of 8-mer” value is -0.0123 ± 0.072.
With GAAGTGTC, the “PBM E-score of 8-mer” value turned out to be 0.42864 ± 0.00011.
Then ACTGAGTG, with 0.19 ± 0.047; and AGGTTTCA, with 0.102 ± 0.031.
For the sequence ACTAAGCA, the “PBM E-score of 8-mer” value is -0.195 ± 0.051.
Then CCTGCTGC, with -0.107 ± 0.0052; and ATCAGAGA, with -0.29 ± 0.02; and CATTCTAA, with -0.151 ± 0.026.
Turning to AATCACTC, the “PBM E-score of 8-mer” value was 0.114 ± 0.018.
For the sequence ACGCACCA, the “PBM E-score of 8-mer” value came out at 0.0513 ± 0.0069.
As to TACTATCA, the “PBM E-score of 8-mer” value is -0.152 ± 0.032.
Consider ACCCGCGT, for which the “PBM E-score of 8-mer” value was 0.18 ± 0.057.
Turning to GTTTCGCA, the “PBM E-score of 8-mer” value turned out to be 0.36 ± 0.02.
Turning to CATATACC, the “PBM E-score of 8-mer” value is -0.1917 ± 0.0017.
Then GGGGCAGA, with -0.245 ± 0.061; and AAGCCTCT, with -0.0688 ± 0.057; and AAGGTGAG, with 0.445 ± 0.014.
Then AAGCTGCA, with 0.117 ± 0.016.
CAAATTGA: the “PBM E-score of 8-mer” value worked out at 0.051 ± 0.068.
Then TACGAACA, with -0.0421 ± 0.0033; and CAACCTCA, with 0.147 ± 0.058.
Then CGGAAGAA, with -0.0853 ± 0.066; and CTACTGCC, with -0.12 ± 0.042.
Then GCCCTTGA, with -0.213 ± 0.041; and CCCGCAAC, with -0.0391 ± 0.028; and TAGATGAA, with -0.0885 ± 0.015.
As to ACGCTAGT, the “PBM E-score of 8-mer” value was -0.0251 ± 0.059.
Then CGGTGGCC, with -0.216 ± 0.1; and AAAAACTG, with -0.101 ± 0.0074.
For CGGCAGGA the value was -0.125 ± 0.038.
On to GAGGCTAA, for which the “PBM E-score of 8-mer” value was -0.0881 ± 0.039.
Take GAGGTGCC: the “PBM E-score of 8-mer” value came out at 0.379 ± 0.019.
Then GGGAATGA, with 0.0437 ± 0.066; and GCCACTTA, with 0.244 ± 0.011; and ATCTATTG, with -0.172 ± 0.11.
For TACGACTA, the “PBM E-score of 8-mer” value is -0.13 ± 0.016.
Then AGACGCGG, with -0.22 ± 0.076.
For CCCCACTA the value was 0.089 ± 0.026.
For CAGCATAC the value was 0.0119 ± 0.012; for CAGAGCTC, -0.265 ± 0.01.
Take GCGCGACA: the “PBM E-score of 8-mer” value came to 0.3438 ± 0.0009.
For GCACCAAC the value was 0.17 ± 0.084; for GAGTTACC, 0.144 ± 0.011; for ACGGTTCA, 0.0606 ± 0.0075.
Take ACGGGCTC: the “PBM E-score of 8-mer” value was -0.0955 ± 0.038.
In the case of AGGCACAA, the “PBM E-score of 8-mer” value is -0.116 ± 0.028.
Then AGAGATCT, with -0.152 ± 0.025.
For GAACCGTC the value was 0.0629 ± 0.027; for ACAACGCG, 0.174 ± 0.0055; for GAGTGTAA, 0.235 ± 0.04.
Then AGGGAACC, with -0.336 ± 0.03.
For CGATCCTA, the “PBM E-score of 8-mer” value was -0.0748 ± 0.024.
For GAGCTCGC the value was 0.032 ± 0.013; for AAGGAAAA, -0.219 ± 0.11; for CCAGTATC, -0.199 ± 0.063.
Then AAGGCGGC, with 0.0356 ± 0.024; and AGGGCAAT, with -0.199 ± 0.012; and AACTTAAT, with -0.0641 ± 0.021.
For ACATAGTA the value was -0.0478 ± 0.1; for AACATATG, -0.0686 ± 0.032.
Turning to AGGGTAAA, the “PBM E-score of 8-mer” value was -0.167 ± 0.029.
On to CCAATCAA, for which the “PBM E-score of 8-mer” value was -0.131 ± 0.035.
Then CTATGCGA, with 0.124 ± 0.063; and CCTTGAGA, with -0.116 ± 0.016; and ACCAGATC, with 0.106 ± 0.018.
Regarding CATGACCA, the “PBM E-score of 8-mer” value is -0.2 ± 0.056.
For ATAATCAT the value was -0.085 ± 0.035; for CCCGTGCG, -0.0818 ± 0.018; for GGCTAGCA, 0.117 ± 0.015.
For ATCGAACG the value was -0.0106 ± 0.017.
For AAATATGA the value was -0.142 ± 0.076; for ATGACGCC, 0.321 ± 0.0033.
Take ACCTACCT: the “PBM E-score of 8-mer” value worked out at 0.0102 ± 0.051.
Then ACATCTGC, with -0.0696 ± 0.012.
For GGTGTCGA, the “PBM E-score of 8-mer” value came to 0.453 ± 0.015.
CTGAGGAC: the “PBM E-score of 8-mer” value was 0.0509 ± 0.03.
Then AGAACAGG, with -0.153 ± 0.039; and CATAATCC, with -0.186 ± 0.021.
Then TTGTTAAA, with 0.184 ± 0.12.
On to GCGCAGTA, for which the “PBM E-score of 8-mer” value was -0.0941 ± 0.029.
Regarding GATCGTCC, the “PBM E-score of 8-mer” value is -0.199 ± 0.011.

The values are drawn from the supplement of paper PMC4166925.
